Experimental data reported in PubChem BioAssay AID488969 (Vanderbilt High Throughput Screening Facility, 2010).
Over roughly 110,000 compounds, “z-score” has its median near -0.1; the highest 2% begin near 2. This is one part of the list.

These molecules were tested against Metabotropic glutamate receptor 8 (Rattus norvegicus) (UniProt P70579) (assay: mGluR8 Gi/Go-coupled signaling modulation – cell-based, rat, thallium flux, HTS, primary screen (AID 488969)). Conditions: HEK293 rat mGluR8, GIRK (G protein-gated inwardly rectifying potassium channel) thallium flux, FluoZin2; at 10 µM; stronger effect = higher value; submaximal glutamate (EC20) added with thallium.
UniProt P70579, sequence (P70579 whole entry, looked up): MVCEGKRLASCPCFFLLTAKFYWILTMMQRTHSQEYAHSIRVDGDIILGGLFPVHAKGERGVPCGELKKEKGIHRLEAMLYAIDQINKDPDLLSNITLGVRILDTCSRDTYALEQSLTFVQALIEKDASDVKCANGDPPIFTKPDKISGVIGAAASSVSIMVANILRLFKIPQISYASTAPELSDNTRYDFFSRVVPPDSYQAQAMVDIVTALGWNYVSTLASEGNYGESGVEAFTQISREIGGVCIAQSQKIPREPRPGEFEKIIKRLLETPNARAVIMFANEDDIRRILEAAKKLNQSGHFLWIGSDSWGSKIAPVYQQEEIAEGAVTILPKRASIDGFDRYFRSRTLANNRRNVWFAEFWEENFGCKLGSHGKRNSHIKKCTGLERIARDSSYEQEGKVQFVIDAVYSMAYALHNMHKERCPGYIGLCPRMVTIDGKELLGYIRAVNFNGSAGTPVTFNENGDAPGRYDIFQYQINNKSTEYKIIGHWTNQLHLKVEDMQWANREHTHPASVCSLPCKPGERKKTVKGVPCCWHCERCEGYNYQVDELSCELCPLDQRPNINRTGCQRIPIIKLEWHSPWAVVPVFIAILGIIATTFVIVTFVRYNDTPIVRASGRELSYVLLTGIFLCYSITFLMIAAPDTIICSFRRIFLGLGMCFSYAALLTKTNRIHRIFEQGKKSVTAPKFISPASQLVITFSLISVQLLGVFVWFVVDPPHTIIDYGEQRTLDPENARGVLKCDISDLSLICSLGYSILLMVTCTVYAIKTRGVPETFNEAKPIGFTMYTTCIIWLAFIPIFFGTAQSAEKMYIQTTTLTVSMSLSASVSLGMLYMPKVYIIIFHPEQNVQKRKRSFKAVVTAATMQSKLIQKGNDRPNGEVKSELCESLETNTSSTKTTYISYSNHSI

SMILES	z-score
COc1ccc(S(=O)(=O)Nc2ccc(F)cc2)c(C)c1C	0.12
CSc1nc(Cc2ccc(Cl)cc2)nc2ccccc12	0.221
O=C(Nc1ccc(Cl)c(Cl)c1)OCc1cnc(Cl)s1	-0.164
CCCn1nc(C(=O)Nc2ccc(S(=O)(=O)Nc3nccs3)cc2)c2ccccc2c1=O	-0.771
O=C1CC(N2CCN(Cc3ccc4c(c3)OCO4)CC2)C(=O)N1c1ccccc1 (stereo not given)	-0.354
CCOc1ccc(S(=O)(=O)N(C(=O)c2ccco2)c2cc3sc(=O)oc3c3ccccc23)cc1	-0.337
CC(C)CNC(=O)CC(NCC(C)C)C(=O)O (stereo not given)	0.0969
O=C(C(Cl)Cl)N1c2ccccc2OCC1c1ccccc1 (stereo not given)	-0.649
CCCn1c(SCC(=O)NCc2cccs2)nc2c1c(=O)n(C)c(=O)n2C	-0.364
Nc1nnc(SCC(=O)N2CCN(c3ccccc3)CC2)s1	0.237
O=C(Nc1ccc(S(=O)(=O)N2CCOCC2)cc1)c1cccs1	-0.128
CNS(=O)(=O)c1ccc(NC(=O)C(CCSC)NC(N)=O)cc1 (stereo not given)	-0.34
CC1=[N+](C)N(c2ccccc2)C(=O)C1N=Cc1ccccc1Cl (stereo not given)	0.808
CCCOc1ccc(C2=NNC(=O)CC2)cc1	-0.383
CC(=O)C(/C=N/c1cc(-c2ccc(C)cc2)nn1-c1ccccc1)=C(\C)O	-0.251
CCC(N1CCOC1=O)S(=O)(=O)c1ccc(C)cc1 (stereo not given)	-0.148
CN(C)c1ccc(NC2=C([N+](=O)[O-])CS(=O)(=O)C2)cc1	-0.364
O=C(Cn1nnc(-c2ccc(S(=O)(=O)N3CCCC3)cc2)n1)NCC1CCCO1 (stereo not given)	-0.371
O=C(CNC(=O)c1ccco1)OCC(=O)c1ccc2c(c1)CCCC2	-0.0785
Cc1ccc(C(=O)OCc2ccc3c(c2)OCO3)cc1S(=O)(=O)N1CCCCC1	-0.0379
Cc1nnc(SCC(=O)N2c3ccccc3C(C)(c3ccccc3)CC2(C)C)s1 (stereo not given)	0.611
Cc1cc(=O)[nH]c(SCC2(O)C3CC4CC(C3)CC2C4)n1 (stereo not given)	-0.0822
O=C(Cn1ccsc1=NC(=O)C(F)(F)F)c1ccccc1	-0.0946
CCC(C)Sc1nc2c(cnn2-c2ccc(C)c(C)c2)c(=O)[nH]1 (stereo not given)	0.365

SMILES	z-score
COc1ccc(C(=O)CSc2nnc(CNC(=O)c3ccc(OC)cc3)n2C)cc1	0.0342
CCC(=O)Nc1nnc(SCC(=O)N2c3ccccc3CC2C)s1 (stereo not given)	-0.402
Cc1ccc(C(=O)N(c2c(C)n(C)n(-c3ccccc3)c2=O)C(C)C)cc1	-0.285
COc1cc2c(C#N)c(N3CCCCC3)nc(N)c2c(N)n1	0.666
CC(=O)Nc1ccc(C(=O)CSc2nnc(Cc3ccccc3)o2)cc1	0.607
Cc1cc(C)nc(SCc2ccc(C(=O)N/N=C3\CC(C)CC(C)(C)C3)cc2)n1 (stereo not given)	-0.372
CNC(=O)CCCCCNS(=O)(=O)c1ccc(C)cc1	0.0156
O=C(O)CCC(=O)N1CCc2cc(S(=O)(=O)N3CCC(Cc4ccccc4)CC3)ccc21	-0.373
COc1ccc(C(C)NC(=O)c2ccc(Cl)cc2)cc1OC (stereo not given)	-0.153
O=C(O)[C@H](CO)Nc1ncnc2sc3c(c12)CCC3	-0.0389
Cc1c(NC(=O)/C(=C\c2ccccc2)NC(=O)c2ccccc2)c(=O)n(-c2ccccc2)n1C	-0.0434
COc1ccccc1-c1noc(-c2ccccc2C(=O)Nc2cccnc2)n1	0.337
CC(=O)N/C(=C\c1ccc(F)cc1)C(=O)OC(C)C	0.09
CCOC(=O)CSc1ccc2nnc(-c3ccncc3)n2n1	0.0256
O=C(N/N=C/c1ccc(OC(F)F)cc1)c1ccc(CSc2nc3ccccc3[nH]2)cc1	-0.217
O=C(Nc1ccccc1)O/N=C(\c1ccccc1)c1ccccn1	-0.139
CCOC(=O)c1c(/N=C/c2ccc(O)cc2O)sc2c1CCC2	-0.175
O=C1C=C(c2ccccc2)C(=O)N1Nc1ccccc1	0.219
Cc1ccc(C(=O)Nc2ccc(OCc3ccccc3)cc2)cc1[N+](=O)[O-]	-0.113
c1ccc(-n2nnnc2SCCCSc2nc3ccccc3s2)cc1	-0.246
CCN(CC)c1ccc(NC(=O)CN2CCN(CC(=O)Nc3ccccc3F)CC2)cc1	-0.382
Cc1sc2ncnc(SC(C)C#N)c2c1C (stereo not given)	-0.254
O=C(c1ccccc1Cl)N1CCc2ccccc2C1	-1.42
COc1ccc(OCC(O)Cn2c(Br)nc3c2c(=O)[nH]c(=O)n3C)cc1 (stereo not given)	0.131

SMILES	z-score
CCc1nnc(NC(=O)c2ccc(COc3ccc(C)cc3)o2)s1	-0.137
CC1=C(C(=O)OCc2ccc3c(c2)OCO3)C(c2ccccc2)NC(=O)N1 (stereo not given)	-0.247
C=CCNC(=S)NNC(=O)c1ccc(OCC(C)C)cc1	-0.0226
COc1ccc(NS(=O)(=O)c2ccc(NC(=S)NC(=O)CC(C)C)cc2)cc1	0.22
O=C(Nc1ccc(SC(F)F)cc1)C1=COCCO1	0.0433
O=C1CCc2cc(S(=O)(=O)N3CCCC3C(=O)N3CCN(c4ccccc4)CC3)ccc2N1 (stereo not given)	-0.179
O=C1C2C3C=CC(C3)C2C(=O)N1c1nccs1 (stereo not given)	0.154
Cc1c(Cl)c([N+](=O)[O-])nn1CCCC(=O)Nc1cc(Oc2ccccc2)cc([N+](=O)[O-])c1	0.587
COCCn1nnnc1CN(Cc1ccco1)Cc1cc2cc3c(cc2[nH]c1=O)OCO3	0.0701
CCC(Sc1nc2ccccc2c2nc3ccccc3n12)C(=O)NCc1ccco1 (stereo not given)	0.508
CCOC(=O)c1ccccc1NC(=O)Cn1cnc2c1c(=O)n(C)c(=O)n2C	-0.772
N#Cc1c(-c2ccco2)cc(C2CC2)nc1N	0.088
CC(=O)C1=C(C)OC(N)=C(C#N)C1c1cc2cccc(C)c2nc1Cl (stereo not given)	-0.0744
O=C(O)c1ccccc1C1=Nc2ccc(O)cc2Oc2cc(O)ccc21	-0.969
COCCNC(=O)c1ccccc1NC(=O)COc1ccccc1	0.0962
Cc1cccc(Nc2nc(N)c([N+](=O)[O-])c(N3CCN(C)CC3)n2)c1	-0.53
Nc1nc(CSc2nnnn2-c2ccccc2)nc(N2CCCc3ccccc32)n1	0.0139
CCCS(=O)(=O)N1CCN(C(=O)c2cccc(OC)c2)CC1	-0.147
NC(=O)C(c1cccc(Cl)c1)c1ncc(C(F)(F)F)cc1Cl (stereo not given)	-0.0407
COC(=O)C1=C(C)NC(=O)/C1=C\c1cc(C)n(-c2cccc(C)c2)c1C	0.279
CC(=O)Oc1ccc(N2C(=O)C3C4C=CC(CO)(O4)C3C2=O)cc1 (stereo not given)	-0.261
COC(=O)COc1ccc(S(=O)(=O)NCCC2=CCCCC2)cc1	-0.367
